According to PubChem BioAssay AID1030 (National Center for Advancing Translational Sciences (NCATS), 2008):
Out of some 220,000 compounds screened, about 16,000 (7.3%) were called active. Inconclusive means that the source gave no clear call. Such entries were picked first, then a sample of the others. Calls follow the shape of the dose curve; as a rule, active = well fitted inhibition curve with a large enough effect (not every such curve was filed as active); inconclusive = small, poorly fitted or top-dose-only effect, or another doubt; inactive = no such curve, though single readings can be large or run the other way. No potency is given beside an inconclusive call; the fits are too rough.

Each compound was assayed against Aldehyde dehydrogenase 1A1 (Homo sapiens) (UniProt P00352) (assay: qHTS Assay for Inhibitors of Aldehyde Dehydrogenase 1 (ALDH1A1)). Settings: Purified ALDH1A1, NADH fluorescence, propionaldehyde substrate; series mostly up to 75.3 µM.
Chain of UniProt P00352 (P00352 whole entry, looked up): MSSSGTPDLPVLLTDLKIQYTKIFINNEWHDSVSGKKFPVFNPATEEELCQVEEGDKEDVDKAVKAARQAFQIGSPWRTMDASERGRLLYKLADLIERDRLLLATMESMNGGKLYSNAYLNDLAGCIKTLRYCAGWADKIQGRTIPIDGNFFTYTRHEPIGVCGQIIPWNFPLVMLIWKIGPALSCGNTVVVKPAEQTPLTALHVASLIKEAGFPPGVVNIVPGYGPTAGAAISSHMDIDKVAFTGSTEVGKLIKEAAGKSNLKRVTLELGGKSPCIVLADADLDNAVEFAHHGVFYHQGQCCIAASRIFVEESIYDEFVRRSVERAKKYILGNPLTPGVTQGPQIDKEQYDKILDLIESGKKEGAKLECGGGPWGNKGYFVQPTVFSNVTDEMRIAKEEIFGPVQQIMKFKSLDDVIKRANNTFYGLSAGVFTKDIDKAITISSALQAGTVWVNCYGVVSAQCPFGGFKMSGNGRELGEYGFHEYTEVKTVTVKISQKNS
Potency is read from the fitted curve at half-maximal effect; tags tell the direction and shape of the fitted curve.

Compound	Potency
O=C(c1ccccc1)C(Nc1ccccn1)c1ccccc1 (configuration not stated)	inactive
Cc1ccc(SCC2=NNC(=O)C2)cc1	inconclusive [inhibitor, partial curve, poor fit]
CCn1c2ccccc2c2cc(NC(=O)C(=O)N3CCOCC3)ccc21	inconclusive [inhibitor, single point]
Cc1nnc(SCC(=O)Nc2sc3c(c2C#N)CCCCC3)n1N	active: 22.4 µM
O=S(=O)(Cc1ccccc1Cl)CC(O)COc1ccccc1Cl (configuration not stated)	inactive
N[C@](CC1c2ccccc2Oc2ccccc21)(C(=O)O)[C@H]1C[C@@H]1C(=O)O	inactive
CCCCc1c(O)c2ccccc2n(CCCC)c1=O	inconclusive [inhibitor, single point]
C/C(=N\Nc1ccc(F)cc1)c1ccncc1	active: 20 µM
CCN(CC)S(=O)(=O)c1ccc(Cl)c(NC(=O)COc2ccc3c(C)cc(=O)oc3c2)c1	inconclusive [inhibitor, partial curve]
COc1ccc(C2=Nn3c(nnc3-c3ccncc3)SC2)cc1OC	inconclusive [inhibitor, single point]
COCC(=O)N1CCC[C@@]2(CCN(C(=O)Nc3ccccc3)C2)C1	inactive
S=C(Nc1ccccc1)Nc1ccc(Br)cn1	inconclusive [inhibitor, full curve]
CC/C(=N/N=C(\CC)c1ccccc1)c1ccccc1	inactive
Cc1nc(Nc2ccc3c(c2)OCCO3)c2oc3ccccc3c2n1	inconclusive [inhibitor, single point]
O=C(OCC(=O)N1CCCc2ccccc21)c1cncc(Br)c1	inactive
CCOC(=O)c1c(C)n(C)c2cc(-c3ccc(C)cc3)c(O)cc12	inconclusive [inhibitor, single point]
COc1ccc(-c2ccnc(SCC(=O)Nc3ccccn3)n2)cc1	inconclusive [inhibitor, single point]
COc1ccccc1/C=C/C=N/N1CCN(Cc2cccc3ccccc23)CC1	inactive
Cn1c(CNC(=O)c2ccc(Cl)cc2)nnc1SCC(=O)Nc1sc2c(c1C#N)CCCC2	inconclusive [inhibitor, single point]
COc1ccccc1CCNC(=O)c1csc2c1CCCC2	inconclusive [inhibitor, single point]
CC1(C)CC(=O)C(N=Nc2ccc(S(=O)(=O)N3CCCCCC3)cc2)=C(O)C1	active: 2.51 µM
CCSc1nc(-c2ccc(OC)cc2)cc(-c2ccc(OC)cc2)c1C#N	inconclusive [inhibitor, partial curve]
